From article PMC10726135
Some of the results follow. At the low end of the ranking the order means little. The protein was read in a cell extract, so binding may be indirect.

The sequences below were run against T1, HNF4alpha8 (COS-7 nuclear extract) (UniProt P41235-5) (assay: protein-binding microarray). Conditions: COS-7 nuclear extract on double-stranded Agilent 4x180k PBM; binding buffer, salt, pH and temperature not given; high values mean tight binding; double strand, one strand shown; sequences stand for … in …GCCTAGGGAGATTAGAGTATCGGTCGA.
T1 sequence: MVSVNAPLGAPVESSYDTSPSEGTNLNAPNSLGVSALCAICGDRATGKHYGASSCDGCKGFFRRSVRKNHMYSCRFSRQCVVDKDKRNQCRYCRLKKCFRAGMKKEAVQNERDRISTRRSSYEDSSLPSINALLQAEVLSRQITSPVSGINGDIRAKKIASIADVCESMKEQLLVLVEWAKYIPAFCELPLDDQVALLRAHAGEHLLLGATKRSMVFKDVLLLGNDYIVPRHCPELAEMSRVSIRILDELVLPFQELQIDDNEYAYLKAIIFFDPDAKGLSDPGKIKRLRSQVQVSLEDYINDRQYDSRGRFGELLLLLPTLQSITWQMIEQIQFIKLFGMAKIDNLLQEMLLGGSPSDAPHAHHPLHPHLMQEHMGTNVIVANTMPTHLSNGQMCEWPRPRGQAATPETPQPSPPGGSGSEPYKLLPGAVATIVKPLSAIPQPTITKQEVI

Row | Sequence | binding signal (log2 normalized intensity)
1 | GTTCTTGCTACCTACTCATTCATATCACCT | -0.91
2 | GGGCATTAGGTGGACAGGGGTGTGTTGACC | 3.03
3 | CCTGTCTGACAGGATGAATTTATTGCCCTC | 3.21
4 | TCAGAGGCCTGAAGGCCCCCAGGTAGCTGC | 2.04
5 | GGACAGGTGCGACGAACGGGTAAATCCGGT | -1.35
6 | TAATCAACTGCAGGAGTCGGGAGGTAGGGG | -1.28
7 | ACCAGACAGCACCTCTCTGATGCCATGATA | -1.33
8 | TATATGAGTGTATAGTGGCACTGTTATGAC | 1.12
9 | AGACTTTGCACCAAGGAGACACCCCTGCAG | 2.39
10 | ATTAGAACAAACGACGCTCCTATCATCCCT | -1.01
11 | ACATCACCTACCTGACTCCTTAGGGATTTG | -1.32
12 | GGAATTCCTCCTCCTGTTTGTATTCCTTGT | 1.01
13 | CTGTTGACCTTGAAATGCCATGTGATCTCT | 2.81
14 | TGAAAACAGGGCAAGGAACGGAATGTGTGA | -0.694
15 | CGGCGGCGCAGACGGCGGATCCTCCCAGCC | -1.32
16 | AGAAATGCCAAGATCAGGGCTAAGATCAGA | -1.31
17 | AGGGTCAGAGGACAGGCTAATGAGATAATG | -1.19
18 | TGTTTCTTATCACACAGTCAACATGTCATT | 0.384
19 | AGATACGCCTGAACTTTGATCAGCATTCAA | 5.88
20 | TAATCTCAGATATGCTAATTAACCCTCCTG | 1.45
21 | TGAAGCCGTCCTGTCCTGGACTTTCCTTTG | 3.43
22 | ACAAGATCAATCAATTTACCTCTGCTCCCC | 2.21
23 | TTAGAGAAAAAGCCCAAGAAACTTCAAAGA | -1.34
24 | CCCCTATGTCTAGGACTCTAGTGTTCTCTT | 1.55

Row | Sequence | binding signal (log2 normalized intensity)
25 | GACGCGGTCTCAGTTAACGGGGACGCTTTA | -1.28
26 | GTGCTTGTCTGACTGCTGCCAAAGGTAAAA | 1.34
27 | CTAAGATAACCATCAAATCCTCGGAAGACG | -1.35
28 | AATCCTCGGAAGACGCACCTCTGCATACTT | -1.38
29 | GATGAAAGGAGCTTGGGAAGACAGATGTGA | -1.16
30 | CTCCTGTTTGTATTCCTTGTCCTTGACCCT | 4.96
31 | CCCCCACCTCTTTTCCCAGACGTGGTGGAT | 3.87
32 | AGGAGCTTGTAAGCCACAGTACAAAGGTGA | 4.67
33 | GAAACCAGAAAAATGGAGCAGCTCTGTATT | -1.22
34 | AGGCGCGCCCGCGCTGCTCGCAAGCAGAAC | -1.23
35 | TAAGGAACTGTGTAATAAGGAGTTGTGTGA | 0.144
36 | AACCTCCTTTGAGATAGCTATGATTATCCT | -0.867
37 | GGCTACTTTCCTCCCACCTTCGAGCTTCAC | 0.491
38 | TTATTATTTGTCTGGGTTATCAGTCTCTGT | 1.4
39 | AGAGGGAAAGCGAGAGAGCCTGGACACACG | -1.34
40 | CTTATCAGCAGGGTCTTTTTGACCTGTATC | 3.86
41 | TAAGCCCACTAGGGAATGAAGCTAAAAGAA | -1.45
42 | TGGACTTTGAACCTCTCTTCTTTTTCGTCT | 7.42
43 | GCACACATAATAGATGTGCTATATAAAAAC | -1.22
44 | GATCAAGTGTCTCTACTGTCCATCTTTTGC | 1.26
45 | TTGGTTCCACATCAGAGAGTTCAAACTCTG | 2.37
46 | CCCCACCCGCGGTCCGTCCCTCCTGGTCGA | 3.57
47 | GCCTTTGGTACAGGGCCCAGAAAAGTAGAT | -1.34
48 | GTCCAAATAGCGCTAACTCTATATCCAAGA | -1.02

Row | Sequence | binding signal (log2 normalized intensity)
49 | ACATTCCAGTGGTCCCTGGAGATAATAGTG | -0.113
50 | TCTATGCCAAGCTCTGGGCTAGTCCCTGAG | -1.22
51 | GCCAGCCAGGGCCACCCATCAGTGGACTTT | 7.34
52 | GAACAGCAAGACTTTGGCCCTGCAGACTTT | 3.02
53 | CTGGGGCCACCCTCCTCTCTGGGTCAAAGG | 5.36
54 | TTTTCACATGGAATGTCGTGCCCTAATCTC | 1.25
55 | AGAGATGTACACAGTTCAAAGGGCAGACAG | 4.73
56 | AGGCGGAACAAGGCTGAAGGGAAGCTCTGG | -1.32
57 | GAGCCAGGTGTGCTGAGGAAACTGACAGGA | -1.23
58 | ACTGATAACGCCCGCCTAACCTTGAGGAGC | -1.39
59 | TTATATGTCCACCTTATCTAATGCCCCAAA | 3.55
60 | AGGTAGATGAATCCACAAAGATAAGAAAAA | -1.45
61 | CAGTCCTTCAGTCCTTCCCCCGCCAGATGT | 4.99
62 | TGACTGGGGTTAACGTCCAAAGGTAATGGT | 2.93
63 | TATTTGATGGTACAAATTCATGGCTGGGCT | -1.39
64 | GCATGTGGGGGCCACGCACACCTGGATCTT | -1.08
65 | AGGGAAGAGATCATGGCCGATCGACTAGCG | -1.23
66 | CTCACAGCTCAATCCAACAAATAGACATTC | -1.24
67 | AAGGGCTTCAGAGTCGATAGTCCAAATTCT | 2.4
68 | GTCCACAGAAAGGCAAGAAGTATGACAACA | -1.28
69 | GGTTCTGGGGTGATTACCCTTATCTTATCT | 1.35
70 | GAGCCATAGCCCAAGTTCAAAGGTTATCTG | 6.78
71 | CACAGGTAAACATTTGCCTTTAGGGCCCCC | 2.81
72 | TACCCACGTTTAGGATTAAACACGTTTTAT | 0.633

Row | Sequence | binding signal (log2 normalized intensity)
73 | TACCAACAGGCTTAACATAAAGGGTTGAAG | -1.32
74 | ACCCTTTTGCCCTTTGAGCTTCTGTCTTGG | 4.96
75 | CCTCTATCCTCCACAAACAAACAGGGTGGC | 0.0941
76 | GGATGACCCAGATAGGCAAAGTGGCTAGGA | -1.29
77 | CAAGTTGGTTTACATTCTTAGAAGATAAAG | 0.323
78 | TAATTCTGTGTCATCTGAACTCTGACCAAC | 4.62
79 | CCAAACAAATGGAGAAGGTCTAAGTAAACT | -1.32
80 | ATCACATTCTAATCCTCTGGTCTTTGCCCC | 5
81 | TGACTTTAAGTTGACTCCAATGCTCGTTGA | 0.874
82 | GAGTGGCCTTTAGAACCGGGGAGATACTGT | 0.192
83 | TGGCCACTGGCCCAGCGGATTAATATCCAG | -1.28
84 | ATCAGGGGTCCTGGCAGCACCTGAAGAATT | -1.43
85 | GACCTTTGCCCAAGCCGTTCCCTGTACCTA | 5.12
86 | AAATAGGCAAGACTGCCACCTACTGACCAA | -1.29
87 | ACCTGAAAAACCTCTCTCCAGGTACAAGGA | -1.24
88 | TAACCAGGGAGTGGCAGCATTGTGCTGAAA | -1.04
89 | CATAGCAAGAGTGACCTTTGCTCCAGTTCC | 8.19
90 | TGGGCTGTAAAAATCTATGGCAAAGGTCTC | 2.22
91 | AAGTCCCAGAAGTTCTAAGGTGGGAATGCT | -1.24
92 | AAACCAAGCTGTCCGACTGCACACCGTCCA | -1.13
93 | AAGCAGAAGCTGCACACATGTCAAAGGTCA | 6.91
